What all share (experiment): two-hybrid; KAR4-GBD alleles with IME4-GAD in PJ69-4 diploids; 24 hours in meiosis-inducing conditions, then 10-fold serial dilutions on SC-HIS and SC-ADE (HIS3 and ADE2 reporters); graded ++++ to -
The target of experiment [1] is T1, Kar4p A157P fused to the Gal4p DNA-binding domain (S. cerevisiae) (UniProt P25583).
T1 sequence: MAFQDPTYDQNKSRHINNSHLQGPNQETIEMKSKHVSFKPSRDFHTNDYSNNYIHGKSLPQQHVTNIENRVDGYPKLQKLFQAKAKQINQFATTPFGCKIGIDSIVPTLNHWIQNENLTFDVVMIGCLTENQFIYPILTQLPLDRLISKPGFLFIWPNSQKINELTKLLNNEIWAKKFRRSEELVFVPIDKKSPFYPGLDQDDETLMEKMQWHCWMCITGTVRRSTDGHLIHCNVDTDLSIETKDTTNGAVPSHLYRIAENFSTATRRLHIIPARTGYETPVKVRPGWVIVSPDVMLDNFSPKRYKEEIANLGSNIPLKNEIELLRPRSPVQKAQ

The target of experiment [2] is T2, Kar4p A310Stop fused to the Gal4p DNA-binding domain (S. cerevisiae) (UniProt P25583).
T2 sequence: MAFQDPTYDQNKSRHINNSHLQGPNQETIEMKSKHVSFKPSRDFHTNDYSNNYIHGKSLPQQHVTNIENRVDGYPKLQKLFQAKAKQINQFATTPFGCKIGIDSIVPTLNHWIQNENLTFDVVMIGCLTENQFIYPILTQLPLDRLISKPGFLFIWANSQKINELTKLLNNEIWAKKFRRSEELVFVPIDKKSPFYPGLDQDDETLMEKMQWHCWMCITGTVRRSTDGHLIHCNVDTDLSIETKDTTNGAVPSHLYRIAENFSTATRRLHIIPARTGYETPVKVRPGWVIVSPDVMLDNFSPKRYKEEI

Experiment [3] concerns the target T3, Kar4p H213Y fused to the Gal4p DNA-binding domain (S. cerevisiae) (UniProt P25583).
T3 sequence: T1 sequence with P157A, H213Y

Experiment [4] concerns the target T4, Kar4p P293L fused to the Gal4p DNA-binding domain (S. cerevisiae) (UniProt P25583).
T4 sequence: T1 sequence with P157A, P293L

The target in experiment [5] is T5, Kar4p T264P fused to the Gal4p DNA-binding domain (S. cerevisiae) (UniProt P25583).
T5 sequence: T1 sequence with P157A, T264P

In publication PMC10470960 one finds binding data, which are given here for one molecule.

Residue numbers refer to the chain shown, from its start. These are yes or no findings as the source states them, for the method shown. Some results given as binding are weak or reduced against the parent protein; the word gives no strength. Tags and fused reporters may be left off the sequences shown.

B1: Ime4p fused to the Gal4p activating domain (protein, UniProt P41833 1-600)
chain: MINDKLVHFLIQNYDDILRAPLSGQLKDVYSLYISGGYDDEMQKLRNDKDEVLQFEQFWNDLQDIIFATPQSIQFDQNLLVADRPEKIVYLDVFSLKILYNKFHAFYYTLKSSSSSCEEKVSSLTTKPEADSEKDQLLGRLLGVLNWDVNVSNQGLPREQLSNRLQNLLREKPSSFQLAKERAKYTTEVIEYIPICSDYSHASLLSTSVYIVNNKIVSLQWSKISACQENHPGLIECIQSKIHFIPNIKPQTDISLGDCSYLDTCHKLNTCRYIHYLQYIPSCLQERADRETASENKRIRSNVSIPFYTLGNCSAHCIKKALPAQWIRCDVRKFDFRVLGKFSVVIADPAWNIHMNLPYGTCNDIELLGLPLHELQDEGIIFLWVTGRAIELGKESLNNWGYNVINEVSWIKTNQLGRTIVTGRTGHWLNHSKEHLLVGLKGNPKWINKHIDVDLIVSMTRETSRKPDELYGIAERLAGTHARKLEIFGRDHNTRPGWFTIGNQLTGNCIYEMDVERKYQEFMKSKTGTSHTGTKKIDKKQPSKLQQQHQQQYWNNMDMGSGKYYAEAKQNPMNQKHTPFESKQQQKQQFQTLNNLYFAQ
On to B1, for which the binding entry was “binds” in experiment [1]; “binds” in experiment [2]; “binds” in experiment [3]; “no binding” in experiment [4]; “binds” in experiment [5].
